This is one part of the list.

One experiment has as its system HSkMC. Description: cytotoxicity call (relative viability < 0.9). Conditions: 10 µM.
Another experiment deals with S. aureus RN4220. Description: growth inhibition call (relative growth <= 0.2). The settings on record: 50 µM.

Consider `COc1ccc(S(=O)(=O)Nc2cccc3c2O[C@H](CN(C)Cc2ccc(-c4ccccc4)cc2)[C@H](C)CN([C@@H](C)CO)C3=O)cc1`, for which the cytotoxicity call in the experiment on HSkMC was “inactive”. Further, the growth inhibition call in the experiment on S. aureus RN4220 is “inactive”.

Consider `C[C@@H]1CN([C@H](C)CO)C(=O)c2cccc(NS(=O)(=O)c3ccccc3)c2O[C@H]1CN(C)Cc1ccc(-c2ccccc2)cc1`, for which the cytotoxicity call in the experiment on HSkMC was “inactive”. Also, in the experiment with S. aureus RN4220, the growth inhibition call was “inactive”.

With `O=C(NCc1ccccn1)C1CCNCC1`, the cytotoxicity call in the experiment with HSkMC was “inactive”. Also, the growth inhibition call in the experiment with S. aureus RN4220 was “inactive”.

As to `CC(C)(C)NCC(O)c1cc(O)cc(O)c1.O=S(=O)(O)O` (stereo not drawn), in the experiment on HSkMC, the cytotoxicity call is “inactive”. Also, in the experiment on S. aureus RN4220, the growth inhibition call was “inactive”.

For `C=CCC[C@H](Cc1ccc(F)cc1)C(=O)OC[C@@H](NC(=O)[C@H](CC=C)CC(=O)N(CCO)Cc1ccccc1)C(C)(C)C`, the cytotoxicity call with HSkMC was “inactive”. For the same compound, in the experiment with S. aureus RN4220, the growth inhibition call was “inactive”.

Regarding `C[C@H]1CN([C@@H](C)CO)C(=O)c2c(c3ccccc3n2C)-c2ccccc2CO[C@@H]1CN(C)Cc1ccccc1`, the cytotoxicity call in the experiment with HSkMC was “inactive”. For the same compound, the growth inhibition call in the experiment on S. aureus RN4220 is “inactive”.

Consider `Cc1noc(C)c1NC(=O)N(C)C[C@@H]1Oc2ccc(NC(=O)Cn3cnnn3)cc2CC(=O)N([C@H](C)CO)C[C@@H]1C`, for which, in the experiment on HSkMC, the cytotoxicity call was “inactive”. In addition, in the experiment on S. aureus RN4220, the growth inhibition call is “inactive”.

Consider `C[C@@H]1CCCCO[C@@H](CN(C)Cc2ccc(Cl)c(Cl)c2)[C@@H](C)CN([C@@H](C)CO)C(=O)c2cc(NC(=O)Nc3ccccc3)ccc2O1`, for which the cytotoxicity call in the experiment with HSkMC was “inactive”. In addition, the growth inhibition call in the experiment with S. aureus RN4220 was “inactive”.

With `COc1ccc(CN(C)C[C@@H]2OCCCC[C@@H](C)Oc3ccc(NC(=O)Nc4ccc(F)cc4)cc3C(=O)N([C@@H](C)CO)C[C@@H]2C)cc1`, the cytotoxicity call with HSkMC is “inactive”. The growth inhibition call in the experiment with S. aureus RN4220 is “inactive”.

Turning to `C[C@@H]1CN([C@H](C)CO)C(=O)c2cc(NC(=O)Cn3cnnn3)ccc2O[C@@H]1CN(C)CC1CC1`, the cytotoxicity call in the experiment with HSkMC is “inactive”. Further, the growth inhibition call with S. aureus RN4220 is “inactive”.

Turning to `COC(=O)CCC(C)C1CCC2C3CCC4CC(O)CCC4(C)C3CC(O)C12C` (stereo not drawn), the cytotoxicity call in the experiment with HSkMC is “inactive”. The growth inhibition call in the experiment on S. aureus RN4220 is “inactive”.

With `Cc1cc(C(=O)Nc2ccc3c(c2)C(=O)N(C)[C@@H]2CC[C@@H](CC(=O)NCC(F)(F)F)O[C@H]2CO3)no1`, in the experiment on HSkMC, the cytotoxicity call was “inactive”. For the same compound, the growth inhibition call with S. aureus RN4220 was “inactive”.

As for `CCCN(C)C[C@H]1OCCCC[C@@H](C)Oc2ccc(NC(=O)c3ccccc3)cc2C(=O)N([C@H](C)CO)C[C@H]1C`, the cytotoxicity call with HSkMC was “inactive”. Moreover, in the experiment with S. aureus RN4220, the growth inhibition call was “inactive”.

For `NNC(=O)c1cccc(C(F)(F)F)n1`, the cytotoxicity call in the experiment on HSkMC was “inactive”. For the same compound, the growth inhibition call with S. aureus RN4220 was “inactive”.

For `CNCc1ccccc1.Cl`, in the experiment on HSkMC, the cytotoxicity call is “inactive”. The growth inhibition call in the experiment on S. aureus RN4220 was “inactive”.

For the compound `C[C@@H]1CN([C@@H](C)CO)C(=O)Cc2cc(NC(=O)Cn3cnnn3)ccc2O[C@@H]1CN(C)Cc1ccc(-c2ccccc2)cc1`, the cytotoxicity call in the experiment on HSkMC was “inactive”. Besides, the growth inhibition call in the experiment on S. aureus RN4220 is “inactive”.

`O=C(O)CC[C@H]1CCCCN1`: the cytotoxicity call in the experiment on HSkMC was “inactive”. Besides, the growth inhibition call in the experiment on S. aureus RN4220 is “inactive”.

With `C[C@H]1CN([C@@H](C)CO)C(=O)c2cc(NS(=O)(=O)c3ccc(Cl)cc3)ccc2O[C@H]1CN(C)Cc1ccc(C(F)(F)F)cc1`, the cytotoxicity call in the experiment with HSkMC was “inactive”. Moreover, the growth inhibition call in the experiment with S. aureus RN4220 was “inactive”.

With `O=C(c1ccccc1F)N1c2ccccc2Sc2ccccc21`, the cytotoxicity call with HSkMC was “inactive”. Besides, the growth inhibition call in the experiment with S. aureus RN4220 was “inactive”.

Regarding `C[C@@H]1CCCCO[C@@H](CN(C)S(=O)(=O)c2ccccc2)[C@H](C)CN([C@H](C)CO)C(=O)c2cc(NC(=O)CCC(F)(F)F)ccc2O1`, the cytotoxicity call in the experiment on HSkMC was “inactive”. For the same compound, in the experiment on S. aureus RN4220, the growth inhibition call is “inactive”.

`COc1cccc(S(=O)(=O)N2C[C@@H](O)COC[C@@H]3O[C@H](CC(=O)NCCCN4CCOCC4)CC[C@H]32)c1`: in the experiment with HSkMC, the cytotoxicity call is “inactive”. For the same compound, the growth inhibition call in the experiment with S. aureus RN4220 was “inactive”.

As to `Cc1noc(C)c1S(=O)(=O)N(C)C[C@H]1OCCCC[C@@H](C)Oc2ccc(NC(=O)Nc3ccc(F)cc3)cc2C(=O)N([C@@H](C)CO)C[C@H]1C`, the cytotoxicity call with HSkMC is “inactive”. Besides, the growth inhibition call in the experiment with S. aureus RN4220 was “inactive”.

With `COc1ccc(S(=O)(=O)Nc2ccc3c(c2)C(=O)N([C@H](C)CO)C[C@H](C)[C@H](CN(C)C(=O)CCC(F)(F)F)OCCCC[C@@H](C)O3)cc1`, the cytotoxicity call in the experiment on HSkMC is “inactive”. Besides, the growth inhibition call in the experiment on S. aureus RN4220 was “inactive”.

Turning to `COCC(=O)N1C[C@@H](C)[C@H](OC)CN(C)C(=O)c2cc(NC(=O)c3ccc(F)cc3)ccc2OC[C@@H]1C`, the cytotoxicity call in the experiment on HSkMC was “inactive”. For the same compound, the growth inhibition call in the experiment on S. aureus RN4220 is “inactive”.

For `Cc1ccc(S(=O)(=O)N(C)C[C@@H]2OCCCC[C@H](C)Oc3ccc(NC(=O)C4CCCCC4)cc3C(=O)N([C@H](C)CO)C[C@@H]2C)cc1`, the cytotoxicity call in the experiment on HSkMC was “inactive”. Also, the growth inhibition call in the experiment with S. aureus RN4220 is “inactive”.

Consider `Cc1ccc(S(=O)(=O)Nc2cccc3c2O[C@@H](CN(C)C(=O)Nc2cccc4ccccc24)[C@@H](C)CN([C@@H](C)CO)C3=O)cc1`, for which, in the experiment with HSkMC, the cytotoxicity call was “inactive”. Also, the growth inhibition call in the experiment with S. aureus RN4220 is “inactive”.

As for `COc1ccc(S(=O)(=O)Nc2ccc3c(c2)CC(=O)N([C@H](C)CO)C[C@@H](C)[C@H](CN(C)C)O3)cc1`, the cytotoxicity call in the experiment on HSkMC was “inactive”. For the same compound, the growth inhibition call in the experiment on S. aureus RN4220 was “inactive”.

For `COc1ccc(S(=O)(=O)Nc2ccc3c(c2)C(=O)N([C@@H](C)CO)C[C@H](C)[C@@H](CN(C)Cc2ccc4c(c2)OCO4)OCCCC[C@H](C)O3)cc1`, in the experiment with HSkMC, the cytotoxicity call was “inactive”. For the same compound, the growth inhibition call in the experiment with S. aureus RN4220 is “inactive”.

For the compound `COc1ccc(S(=O)(=O)N[C@H]2CC[C@@H](CCNC(=O)CN3CCOCC3)O[C@H]2CO)cc1`, in the experiment on HSkMC (human skeletal muscle cells), the cytotoxicity call is “inactive”. Further, in the experiment on S. aureus RN4220, the growth inhibition call is “inactive”.
